Results are given in words; binding and its absence hold for the method and conditions named. For some assays here: Binding seen in cells or lysates may run through a third protein. Some entries that bind do so weakly or less than the wild type. For some assays here: Tags and fused reporters may be left off the sequences shown.
T1: green fluorescent protein-tagged kindlin-2 (in HEK293T) (mouse) (UniProt Q8CIB5)
T1 sequence: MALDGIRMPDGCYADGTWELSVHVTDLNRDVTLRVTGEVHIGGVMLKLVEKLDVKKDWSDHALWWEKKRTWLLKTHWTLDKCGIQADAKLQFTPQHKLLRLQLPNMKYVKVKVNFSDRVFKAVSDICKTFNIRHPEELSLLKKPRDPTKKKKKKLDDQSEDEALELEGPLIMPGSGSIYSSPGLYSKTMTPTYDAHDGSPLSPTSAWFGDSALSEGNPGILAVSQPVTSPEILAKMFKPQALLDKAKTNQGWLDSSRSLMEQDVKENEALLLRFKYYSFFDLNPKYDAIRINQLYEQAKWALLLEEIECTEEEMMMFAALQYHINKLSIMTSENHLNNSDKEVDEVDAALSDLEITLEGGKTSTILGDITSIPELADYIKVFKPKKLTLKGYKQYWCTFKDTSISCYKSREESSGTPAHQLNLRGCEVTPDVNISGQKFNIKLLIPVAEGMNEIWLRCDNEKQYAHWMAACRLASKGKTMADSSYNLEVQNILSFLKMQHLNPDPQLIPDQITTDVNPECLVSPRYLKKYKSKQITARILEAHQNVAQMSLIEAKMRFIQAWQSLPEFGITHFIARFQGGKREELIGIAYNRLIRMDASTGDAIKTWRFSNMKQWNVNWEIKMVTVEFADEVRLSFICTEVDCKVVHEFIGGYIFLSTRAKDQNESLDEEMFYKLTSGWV

Chains of the proteins cited; added tags and fusions are not shown. Lines headed by an entry give the natural chain unless they say otherwise; changes in a name come on top. A line that says so, or that is headed by a name, gives the form on record, which may keep a tag or linker. Residues count along the entry.
UniProt Q8K1B8: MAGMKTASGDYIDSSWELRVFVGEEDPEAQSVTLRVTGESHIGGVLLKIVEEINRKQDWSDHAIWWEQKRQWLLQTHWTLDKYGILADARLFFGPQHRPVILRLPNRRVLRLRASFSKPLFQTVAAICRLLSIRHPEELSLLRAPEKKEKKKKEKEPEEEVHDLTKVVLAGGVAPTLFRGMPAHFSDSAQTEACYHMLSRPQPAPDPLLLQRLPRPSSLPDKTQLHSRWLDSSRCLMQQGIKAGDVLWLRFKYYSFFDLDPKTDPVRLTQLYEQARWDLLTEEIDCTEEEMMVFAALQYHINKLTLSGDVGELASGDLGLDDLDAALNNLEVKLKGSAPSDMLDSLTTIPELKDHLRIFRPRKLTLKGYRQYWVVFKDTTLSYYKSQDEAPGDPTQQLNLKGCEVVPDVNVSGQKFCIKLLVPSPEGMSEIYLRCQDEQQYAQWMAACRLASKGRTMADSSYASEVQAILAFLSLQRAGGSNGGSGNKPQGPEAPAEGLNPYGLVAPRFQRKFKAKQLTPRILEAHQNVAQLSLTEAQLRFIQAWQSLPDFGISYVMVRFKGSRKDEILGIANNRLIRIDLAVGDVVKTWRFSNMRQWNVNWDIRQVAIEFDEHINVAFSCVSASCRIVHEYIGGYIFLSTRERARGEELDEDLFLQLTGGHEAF
His10-SUMO3-paxillin-LIM3 domain (Q8VI36, residues 473-533): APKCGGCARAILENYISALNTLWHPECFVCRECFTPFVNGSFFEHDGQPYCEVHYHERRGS
Cherry-tagged paxillin (Q8VI36-2, form named): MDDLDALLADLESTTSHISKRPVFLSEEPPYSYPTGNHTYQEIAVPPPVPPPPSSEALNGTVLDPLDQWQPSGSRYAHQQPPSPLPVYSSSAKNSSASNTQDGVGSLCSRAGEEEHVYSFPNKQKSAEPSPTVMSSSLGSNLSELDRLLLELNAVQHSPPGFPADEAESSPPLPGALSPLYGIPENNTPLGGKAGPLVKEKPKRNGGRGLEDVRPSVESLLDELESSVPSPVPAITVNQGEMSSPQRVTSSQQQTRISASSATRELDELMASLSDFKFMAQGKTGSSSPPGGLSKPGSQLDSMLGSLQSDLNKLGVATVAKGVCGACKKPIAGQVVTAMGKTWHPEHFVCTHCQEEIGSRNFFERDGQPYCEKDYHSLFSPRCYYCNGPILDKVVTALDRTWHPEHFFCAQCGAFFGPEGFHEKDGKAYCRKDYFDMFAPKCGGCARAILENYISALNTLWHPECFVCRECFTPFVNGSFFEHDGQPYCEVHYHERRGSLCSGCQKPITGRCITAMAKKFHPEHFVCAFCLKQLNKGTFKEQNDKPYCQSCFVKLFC
UniProt Q13418: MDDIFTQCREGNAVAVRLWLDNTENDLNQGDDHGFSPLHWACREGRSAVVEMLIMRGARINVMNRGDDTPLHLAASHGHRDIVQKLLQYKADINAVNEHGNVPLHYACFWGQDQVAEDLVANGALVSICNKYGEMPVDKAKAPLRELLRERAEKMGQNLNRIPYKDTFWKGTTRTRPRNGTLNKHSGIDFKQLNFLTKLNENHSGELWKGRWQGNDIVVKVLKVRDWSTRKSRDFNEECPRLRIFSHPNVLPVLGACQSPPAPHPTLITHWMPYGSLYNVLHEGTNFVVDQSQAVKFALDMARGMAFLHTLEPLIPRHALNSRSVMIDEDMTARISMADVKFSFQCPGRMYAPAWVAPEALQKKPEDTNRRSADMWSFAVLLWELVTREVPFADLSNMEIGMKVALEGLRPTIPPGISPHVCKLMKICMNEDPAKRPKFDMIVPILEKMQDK

T2: green fluorescent protein-tagged kindlin-1 (UniProt P59113)
T2 sequence: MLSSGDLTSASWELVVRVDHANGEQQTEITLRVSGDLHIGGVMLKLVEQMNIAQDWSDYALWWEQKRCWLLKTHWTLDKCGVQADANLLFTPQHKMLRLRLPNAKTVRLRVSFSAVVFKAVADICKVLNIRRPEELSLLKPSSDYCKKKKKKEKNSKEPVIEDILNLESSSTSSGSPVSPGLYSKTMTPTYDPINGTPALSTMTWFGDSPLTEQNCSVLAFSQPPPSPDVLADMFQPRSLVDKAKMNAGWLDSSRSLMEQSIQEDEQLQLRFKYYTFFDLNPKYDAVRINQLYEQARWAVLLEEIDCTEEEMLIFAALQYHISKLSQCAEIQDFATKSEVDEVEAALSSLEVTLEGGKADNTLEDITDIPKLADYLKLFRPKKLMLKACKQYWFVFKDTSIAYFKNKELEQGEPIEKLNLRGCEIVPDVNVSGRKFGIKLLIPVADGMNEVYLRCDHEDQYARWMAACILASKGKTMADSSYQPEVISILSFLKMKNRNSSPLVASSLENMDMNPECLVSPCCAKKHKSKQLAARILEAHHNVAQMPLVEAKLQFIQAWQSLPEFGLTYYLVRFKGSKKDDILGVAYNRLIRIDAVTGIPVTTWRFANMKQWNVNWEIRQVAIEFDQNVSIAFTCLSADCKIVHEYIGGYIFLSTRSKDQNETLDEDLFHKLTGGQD

T3: GFP-tagged kindlin-2 N-terminal truncation construct (mouse) (UniProt Q8CIB5)
T3 sequence: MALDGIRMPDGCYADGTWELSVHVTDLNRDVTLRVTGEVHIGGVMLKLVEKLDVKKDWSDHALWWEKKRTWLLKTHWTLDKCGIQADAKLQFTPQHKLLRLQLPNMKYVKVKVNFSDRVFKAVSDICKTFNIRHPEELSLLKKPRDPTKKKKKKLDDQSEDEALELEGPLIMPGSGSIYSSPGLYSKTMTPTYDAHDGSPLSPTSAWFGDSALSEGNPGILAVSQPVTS

T4: GFP-tagged kindlin-2 lacking the PH domain (in HEK293T) (mouse) (UniProt Q8CIB5)
T4 sequence: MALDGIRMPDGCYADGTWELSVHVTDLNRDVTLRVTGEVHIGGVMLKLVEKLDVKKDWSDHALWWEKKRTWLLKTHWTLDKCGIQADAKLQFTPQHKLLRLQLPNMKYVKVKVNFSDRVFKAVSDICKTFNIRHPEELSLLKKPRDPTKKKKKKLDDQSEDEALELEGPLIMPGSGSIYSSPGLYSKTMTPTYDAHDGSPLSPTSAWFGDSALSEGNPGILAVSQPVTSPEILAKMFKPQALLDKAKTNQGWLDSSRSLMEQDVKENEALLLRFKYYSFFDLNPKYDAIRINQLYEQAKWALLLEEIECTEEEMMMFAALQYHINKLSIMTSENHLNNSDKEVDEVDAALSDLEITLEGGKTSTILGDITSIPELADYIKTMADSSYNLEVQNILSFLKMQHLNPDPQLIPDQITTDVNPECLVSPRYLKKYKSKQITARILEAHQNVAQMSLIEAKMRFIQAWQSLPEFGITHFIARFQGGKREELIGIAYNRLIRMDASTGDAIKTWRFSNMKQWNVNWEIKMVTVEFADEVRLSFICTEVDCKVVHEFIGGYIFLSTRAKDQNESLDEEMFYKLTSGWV

T5: GFP-tagged kindlin-2 C-terminal truncation construct (mouse) (UniProt Q8CIB5)
T5 sequence: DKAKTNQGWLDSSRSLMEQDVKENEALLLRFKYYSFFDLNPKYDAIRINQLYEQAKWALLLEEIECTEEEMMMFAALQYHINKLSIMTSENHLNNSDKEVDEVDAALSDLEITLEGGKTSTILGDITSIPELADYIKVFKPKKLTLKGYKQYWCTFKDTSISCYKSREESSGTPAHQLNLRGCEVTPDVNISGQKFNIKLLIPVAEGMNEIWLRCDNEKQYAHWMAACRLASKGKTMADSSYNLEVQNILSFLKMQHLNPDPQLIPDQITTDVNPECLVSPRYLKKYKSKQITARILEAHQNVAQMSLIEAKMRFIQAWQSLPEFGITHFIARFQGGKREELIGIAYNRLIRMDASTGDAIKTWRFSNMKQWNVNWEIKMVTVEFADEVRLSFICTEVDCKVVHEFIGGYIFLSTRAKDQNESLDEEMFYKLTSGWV


Legend:
[1] = target: T1, green fluorescent protein-tagged kindlin-2 (in HEK293T) (mouse); assay: co-IP; GFP-IP with µ-MACS anti-GFP magnetic beads of lysates of HEK 293T cells overexpressing the GFP-tagged bait and the FLAG- or Cherry-tagged partner; western blot
[2] = target: green fluorescent protein-tagged kindlin-3 (UniProt Q8K1B8); assay: as above
[3] = target: T2, green fluorescent protein-tagged kindlin-1; assay: as above
[4] = target: T3, GFP-tagged kindlin-2 N-terminal truncation construct (mouse); assay: as above
[5] = target: T4, GFP-tagged kindlin-2 lacking the PH domain (in HEK293T) (mouse); assay: as above
[6] = target: T5, GFP-tagged kindlin-2 C-terminal truncation construct (mouse); assay: as above
[7] = target: His10-SUMO3-paxillin-LIM3 domain (mouse) (UniProt Q8VI36); assay: pull-down; as the pull-down with ZnCl2, but the washes after kindlin-2 held 25 mM imidazole and 1 mM EDTA in place of 1 mM ZnCl2; both purified

Molecule | binding [1] | binding [2] | binding [3] | binding [4] | binding [5] | binding [6] | binding [7]
Cherry-tagged paxillin (from UniProt Q8VI36-2 1-557) | binds | binds | binds | – | – | – | –
integrin-linked kinase (from UniProt Q13418 1-452) | binds | – | – | no binding | binds | binds | –
recombinant murine kindlin-2 (protein, UniProt Q8CIB5 1-680) MALDGIRMPDGCYADGTWELSVHVTDLNRDVTLRVTGEVHIGGVMLKLVEKLDVKKDWSDHALWWEKKRTWLLKTHWTLDKCGIQADAKLQFTPQHKLLRLQLPNMKYVKVKVNFSDRVFKAVSDICKTFNIRHPEELSLLKKPRDPTKKKKKKLDDQSEDEALELEGPLIMPGSGSIYSSPGLYSKTMTPTYDAHDGSPLSPTSAWFGDSALSEGNPGILAVSQPVTSPEILAKMFKPQALLDKAKTNQGWLDSSRSLMEQDVKENEALLLRFKYYSFFDLNPKYDAIRINQLYEQAKWALLLEEIECTEEEMMMFAALQYHINKLSIMTSENHLNNSDKEVDEVDAALSDLEITLEGGKTSTILGDITSIPELADYIKVFKPKKLTLKGYKQYWCTFKDTSISCYKSREESSGTPAHQLNLRGCEVTPDVNISGQKFNIKLLIPVAEGMNEIWLRCDNEKQYAHWMAACRLASKGKTMADSSYNLEVQNILSFLKMQHLNPDPQLIPDQITTDVNPECLVSPRYLKKYKSKQITARILEAHQNVAQMSLIEAKMRFIQAWQSLPEFGITHFIARFQGGKREELIGIAYNRLIRMDASTGDAIKTWRFSNMKQWNVNWEIKMVTVEFADEVRLSFICTEVDCKVVHEFIGGYIFLSTRAKDQNESLDEEMFYKLTSGWV | – | – | – | – | – | – | no binding (condition: with 1 mM EDTA)

From article PMC4749545, “Kindlin-2 cooperates with talin to activate integrins and induces cell spreading by directly binding paxillin” (eLife, 2016)
